{"source": "PubChem BioAssay AID1460", "about": "(National Center for Advancing Translational Sciences (NCATS), 2008)", "note": "Hit rate of the full screen: of about 270,000 compounds, about 5,800 (2.1%) were called active. Inconclusive means that the source gave no clear call. Such entries were picked first, then a sample of the others. Calls come from the whole dose curve; as a rule, active = well fitted inhibition curve with a large enough effect; inconclusive = small, poorly fitted or top-dose-only effect; inactive = flat fitted curve, though single readings scatter. Potencies of inconclusive entries are doubtful fits and often do not repeat. Potency is the fitted concentration of half-maximal effect; tags give direction and shape of the fitted curve.", "data": [{"target": "Microtubule-associated protein tau (Homo sapiens) (UniProt P10636)", "sequence (P10636 whole entry, looked up, the tested form may be a part)": "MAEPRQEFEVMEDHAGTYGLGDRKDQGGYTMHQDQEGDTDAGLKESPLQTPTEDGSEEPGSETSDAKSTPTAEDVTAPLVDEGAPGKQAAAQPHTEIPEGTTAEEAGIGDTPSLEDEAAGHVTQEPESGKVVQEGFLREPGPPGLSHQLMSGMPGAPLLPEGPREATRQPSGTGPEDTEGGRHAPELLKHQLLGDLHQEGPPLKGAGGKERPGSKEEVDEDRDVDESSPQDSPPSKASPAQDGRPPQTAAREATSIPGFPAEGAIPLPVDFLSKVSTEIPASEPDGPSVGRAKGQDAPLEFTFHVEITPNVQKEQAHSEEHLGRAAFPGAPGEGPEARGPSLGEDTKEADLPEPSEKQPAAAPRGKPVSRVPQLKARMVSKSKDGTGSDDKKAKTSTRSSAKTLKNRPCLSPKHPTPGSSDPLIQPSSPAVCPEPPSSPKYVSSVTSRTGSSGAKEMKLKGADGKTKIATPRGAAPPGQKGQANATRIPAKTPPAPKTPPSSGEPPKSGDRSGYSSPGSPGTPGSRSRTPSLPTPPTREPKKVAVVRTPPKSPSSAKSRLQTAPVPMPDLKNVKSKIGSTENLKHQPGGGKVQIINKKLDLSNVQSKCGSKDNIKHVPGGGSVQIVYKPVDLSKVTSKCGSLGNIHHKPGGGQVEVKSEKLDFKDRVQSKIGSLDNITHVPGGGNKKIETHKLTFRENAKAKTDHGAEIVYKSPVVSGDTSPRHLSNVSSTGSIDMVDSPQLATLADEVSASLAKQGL", "assay": "qHTS for Inhibitors of Tau Fibril Formation, Thioflavin T Binding; note: nearly all actives have a fitted effect of over 55% in size", "conditions": "recombinant tau K18 P301L (four-repeat tau fragment), heparin-induced fibrillization, ThT fluorescence; series mostly up to 57.4 µM", "summary_of_the_method": "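Heparin-induced fibrillization of the P301L-mutant K18 repeat-domain fragment of human tau was followed by ThT binding in quantitative high-throughput format.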", "values": [{"smiles": "Cc1ccc(-c2ccc(CCC(=O)O)n2-c2ccc(O)cc2)cc1", "Potency": "inconclusive: 28.2 µM [inhibitor, partial curve]"}, {"smiles": "CCOC(=O)c1cccc(NC(=O)Cn2c(=O)c3cccn3c3ccccc32)c1", "Potency": "inconclusive: 8.91 µM [inhibitor, single point]"}, {"smiles": "CCOc1ccc(N2C(=O)c3cccnc3C2Nc2ccc(OC)cc2)cc1", "note": "(centres undefined)", "Potency": "inconclusive: 14.1 µM [inhibitor, partial curve]"}, {"smiles": "CC(=O)c1cccc(NC(=S)NC(=O)c2ccccc2)c1", "Potency": "inactive"}, {"smiles": "Cc1cccc(N(C)S(=O)(=O)c2nnc(NC(=O)c3cccs3)s2)c1", "Potency": "inconclusive: 20 µM [inhibitor, partial curve]"}, {"smiles": "Cc1nc(-c2ccccc2)sc1C(=O)CSc1ccc(Br)cc1", "Potency": "inconclusive: 0.1 µM [inhibitor, full curve, poor fit]"}, {"smiles": "COC(=O)c1ccc(-c2nc(O)c3cnccn23)cc1", "Potency": "inconclusive: 22.4 µM [inhibitor, partial curve]"}, {"smiles": "Cc1cccc(N/N=C(\\C=N\\N)C(=O)c2ccc(Br)cc2)c1", "Potency": "active: 14.1 µM"}, {"smiles": "COc1ccc(C(=O)/C=C/C(=O)N(CC(=O)NCCC(C)C)Cc2cccs2)c(O)c1", "Potency": "inconclusive: 39.8 µM [inhibitor, single point]"}, {"smiles": "COCCNC(=O)c1sc2ncccc2c1-n1c(C)ccc1C", "Potency": "inactive"}, {"smiles": "COCCCNC(=O)Cn1c(=O)n(-c2ccc(C)c(C)c2)c(=O)c2c3c(sc21)CCCCC3", "Potency": "inconclusive: 22.4 µM [activator, single point]"}, {"smiles": "O=C1/C(=N\\S(=O)(=O)c2cccs2)C([n+]2ccc(CCCc3ccccc3)cc2)=C([O-])c2ccccc21", "Potency": "active: 2.82 µM"}, {"smiles": "Cc1nc2c(-c3ccccc3)c(C)nn2c(C)c1CCC(=O)NC(C)CCc1ccco1", "note": "(centres undefined)", "Potency": "inconclusive: 39.8 µM [inhibitor, single point]"}, {"smiles": "COc1ccc(OC)c(-c2cc(C3CCN(c4ncccc4[N+](=O)[O-])CC3)[nH]n2)c1", "Potency": "inactive"}, {"smiles": "COc1ccc(OC)c(NS(=O)(=O)c2ccc(-n3cccn3)cc2)c1", "Potency": "inactive"}, {"smiles": "O=C(COC(=O)c1cccnc1Cl)c1ccc(F)cc1", "Potency": "inactive"}, {"smiles": "COc1ccccc1CNC(=O)c1ccc2[nH]c(C)c(C)c2c1", "Potency": "inconclusive: 8.91 µM [inhibitor, partial curve]"}, {"smiles": "COc1ccc(-c2cc(CCCC(=O)NCCc3ccc(OC)cc3OC)no2)cc1", "Potency": "inconclusive: 0.708 µM [inhibitor, full curve]"}, {"smiles": "COc1ccc(NC(=O)c2nnn(Cc3nc(-c4cc(OC)c(OC)c(OC)c4)oc3C)c2C)cc1Cl", "Potency": "inactive"}, {"smiles": "O=C(COc1ccc(F)cc1)Nc1nnc(S(=O)(=O)N2CCCC2)s1", "Potency": "inconclusive: 1.26 µM [inhibitor, full curve]"}, {"smiles": "COC(=O)[C@@H]1C[C@@]2(O)[C@H](O)[C@H](O)[C@H](O)C[C@H]2N1Cc1ccc(N2CCOCC2)cc1", "Potency": "inactive"}, {"smiles": "COc1cc(C2C(C#N)=C(SC)NC3=C2C(=O)CCC3)ccc1O", "note": "(centres undefined)", "Potency": "inactive"}, {"smiles": "O=C(Nc1ccc2nccnc2c1)c1ccco1", "Potency": "inactive"}, {"smiles": "CC1CCN(C(=O)CSc2nc3ccccc3[nH]2)CC1", "Potency": "inactive"}, {"smiles": "S=c1[nH]ccn1-c1cccc(Cl)c1Cl", "Potency": "inactive"}, {"smiles": "COc1cc(C(=O)N2CCN(c3ccc(C)cc3C)CC2)cc(OC)c1OC", "Potency": "inactive"}, {"smiles": "COc1ccc(-c2cc(C(=O)NCc3cccs3)no2)cc1", "Potency": "inactive"}, {"smiles": "CCN(CC)S(=O)(=O)c1ccc(C(=O)NCCSc2c(-c3ccc(F)cc3)[nH]c3ccccc23)cc1", "Potency": "inactive"}, {"smiles": "CCOC(=O)c1c(/N=C/C2=C(O)CC(C)(C)CC2=O)sc(C)c1C", "Potency": "inconclusive: 28.2 µM [inhibitor, single point]"}, {"smiles": "CCc1nc2ccccc2nc1N1CCN(S(=O)(=O)c2ccc(Cl)cc2)CC1", "Potency": "inconclusive: 15.8 µM [inhibitor, partial curve]"}, {"smiles": "Cc1ccc2c(CC(=O)OCn3nnc4ccccc4c3=O)coc2c1", "Potency": "inconclusive: 44.7 µM [inhibitor, single point]"}, {"smiles": "O=C(c1ccc2c(c1)OCO2)c1cn(Cc2ccc(Cl)cc2)c2ccc(F)cc2c1=O", "Potency": "inactive"}, {"smiles": "COCCNC(=O)CN1C(=O)c2cccnc2Sc2ccccc21", "Potency": "inactive"}, {"smiles": "COc1ccc2c(c1)c(=O)c(S(=O)(=O)c1ccc(F)cc1)cn2Cc1ccccc1Cl", "Potency": "inactive"}, {"smiles": "CCC(CO)NC(=O)c1cc2c(s1)CCC2", "note": "(centres undefined)", "Potency": "inactive"}, {"smiles": "O=C(O)c1cccc(Cn2c(Cl)c(/C=N/NC(=O)c3ccccc3O)sc2=O)c1", "Potency": "inactive"}, {"smiles": "CCCC(=O)Nc1ccc2oc(-c3ccc(OC)c(Br)c3)nc2c1", "Potency": "inconclusive: 1.78 µM [inhibitor, full curve, poor fit]"}, {"smiles": "CC(c1ccc(C(C)(C)C)cc1)S(=O)CC(O)CO", "note": "(centres undefined)", "Potency": "inactive"}, {"smiles": "CCc1nnc(NC(=O)CSc2ccc(-c3nc4ccccc4[nH]3)cn2)s1", "Potency": "inconclusive: 5.01 µM [inhibitor, single point]"}, {"smiles": "CCOC(=O)C1=C(CS(=O)(=O)c2ccc(F)c(C)c2)NC(=O)NC1c1ccc(O)c(O)c1", "note": "(centres undefined)", "Potency": "inactive"}, {"smiles": "CC1CCC/C(=C\\Nc2ccc3c(c2)OCO3)C1=O", "note": "(centres undefined)", "Potency": "inconclusive: 14.1 µM [inhibitor, partial curve]"}, {"smiles": "O=C(O)Cn1cccc1C(=O)c1ccccc1", "Potency": "active: 8.91 µM"}, {"smiles": "COc1cc(CN2CCc3ccccc3C2)ccc1O", "Potency": "inconclusive: 20 µM [inhibitor, partial curve, poor fit]"}, {"smiles": "COc1ccccc1N1CCN(C(=O)c2sc3nc(-c4ccc(F)cc4)cn3c2C)CC1", "Potency": "inconclusive: 15.8 µM [inhibitor, partial curve]"}, {"smiles": "COc1cccc2c(SCC(=O)N/N=C/c3ccc(O)cc3O)cc(C)nc12", "Potency": "inconclusive: 14.1 µM [inhibitor, partial curve]"}, {"smiles": "CC(C)OCCCNC(=O)CN1C(=O)c2cccnc2Sc2ccccc21", "Potency": "inactive"}, {"smiles": "COc1ccc(CCN2CC(C#N)=C3c4cc(OC)c(OC)cc4CCN3C2)cc1OC", "Potency": "inconclusive: 14.1 µM [inhibitor, partial curve]"}, {"smiles": "O=C(/C=C/c1ccco1)NC(=S)Nc1ccc(N2CCCC2)cc1", "Potency": "active: 3.55 µM"}, {"smiles": "Clc1ccc(/C=C/c2nc(Cl)c(-c3ccc(Cl)cc3)c(Cl)n2)cc1", "Potency": "inconclusive: 0.794 µM [inhibitor, partial curve, poor fit]"}]}]}
